# Experimental data published in the supplement of paper PMC11876631.
# ± gives the standard deviation of the averaged measurements. Laboratory Escherichia coli strains with one amino-acid change in an essential protein, pooled on minimal glucose agar with carbenicillin or gentamicin at twice the control MIC (plus kanamycin and chloramphenicol for the plasmids), 48 h. Fold change of barcode share against drug-free plates; higher = less susceptible. Active = above 20 in both replicates (the paper's putatively resistant). '<' = one read or none on drug, '>' = one read or none on a drug-free plate. Shares are relative, so most strains fall below 1 when a few take over. Listed are strains with at least 15 reads on both drug-free plates, and hits; most hits rest on fewer reference reads. Replicate rank correlation about 0.5. Edits are read from barcodes.
# B1: bioB; numbered along this chain (parent)
# chain: MAHRPRWTLSQVTELFEKPLLDLLFEAQQVHRQHFDPRQVQVSTLLSIKTGACPEDCKYCPQSSRYKTGLEAERLMEVEQVLESARKAKAAGSTRFCMGAAWKNPHERDMPYLEQMVQGVKAMGLEACMTLGTLSESQAQRLANAGLDYYNHNLDTSPEFYGNIITTRTYQERLDTLEKVRDAGIKVCSGGIVGLGETVKDRAGLLLQLANLPTPPESVPINMLVKVKGTPLADNDDVDAFDFIRTIAVARIMMPTSYVRLSAGREQMNEQTQAMCFMAGANSIFYGCKLLTTPNPEEDKDLQLFRKLGLNPQQTAVLAGDNEQQQRLEQALMTPDTDEYYNAAAL
# B2: carB; numbered along this chain (parent)
# chain: MPKRTDIKSILILGAGPIVIGQACEFDYSGAQACKALREEGYRVILVNSNPATIMTDPEMADATYIEPIHWEVVRKIIEKERPDAVLPTMGGQTALNCALELERQGVLEEFGVTMIGATADAIDKAEDRRRFDVAMKKIGLETARSGIAHTMEEALAVAADVGFPCIIRPSFTMGGSGGGIAYNREEFEEICARGLDLSPTKELLIDESLIGWKEYEMEVVRDKNDNCIIVCSIENFDAMGIHTGDSITVAPAQTLTDKEYQIMRNASMAVLREIGVETGGSNVQFAVNPKNGRLIVIEMNPRVSRSSALASKATGFPIAKVAAKLAVGYTLDELMNDITGGRTPASFEPSIDYVVTKIPRFNFEKFAGANDRLTTQMKSVGEVMAIGRTQQESLQKALRGLEVGATGFDPKVSLDDPEALTKIRRELKDAGADRIWYIADAFRAGLSVDGVFNLTNIDRWFLVQIEELVRLEEKVAEVGITGLNADFLRQLKRKGFADARLAKLAGVREAEIRKLRDQYDLHPVYKRVDTCAAEFATDTAYMYSTYEEECEANPSTDREKIMVLGGGPNRIGQGIEFDYCCVHASLALREDGYETIMVNCNPETVSTDYDTSDRLYFEPVTLEDVLEIVRIEKPKGVIVQYGGQTPLKLARALEAAGVPVIGTSPDAIDRAEDRERFQHAVERLKLKQPANATVTAIEMAVEKAKEIGYPLVVRPSYVLGGRAMEIVYDEADLRRYFQTAVSVSNDAPVLLDHFLDDAVEVDVDAICDGEMVLIGGIMEHIEQAGVHSGDSACSLPAYTLSQEIQDVMRQQVQKLAFELQVRGLMNVQFAVKNNEVYLIEVNPRAARTVPFVSKATGVPLAKVAARVMAGKSLAEQGVTKEVIPPYYSVKEVVLPFNKFPGVDPLLGPEMRSTGEVMGVGRTFAEAFAKAQLGSNSTMKKHGRALLSVREGDKERVVDLAAKLLKQGFELDATHGTAIVLGEAGINPRLVNKVHEGRPHIQDRIKNGEYTYIINTTSGRRAIEDSRVIRRSALQYKVHYDTTLNGGFATAMALNADATEKVISVQEMHAQIK
# B3: secE; a variant is named by its letters at X, in order (parent)
# chain: MSANTEAQGSGRGLEAMKWXXVXAXLLVAIVGNYLYRDIMLPLRALAVXILIAAAGGVALLTTKGKATVAFAREARTEVRKVIWPTRQETLHTTLIVAAVTAVMSLILWGLDGILVRLVSFITGLRF
# Variants of: B1
# Assay: barcode share on antibiotic plates over drug-free plates; higher = less susceptible
# Settings: with Escherichia coli (laboratory strain); antibiotic: carbenicillin; 2× MIC (3.1 µg/mL)
# Method: (§1)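 A pool of E. coli strains, each edited to carry one amino-acid change in an essential protein, was grown for 48 h on minimal glucose agar with or without antibiotic; strain barcodes were sequenced; mean of two replicates.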
row,Variant,fold change of barcode share
1,V249W,0.38916 ± 6.4e-05
2,M98P,1.3 ± 0.27
3,F305W,0.415 ± 0.03
4,V193Q,0.61 ± 0.4
5,F305A,0.536 ± 0.03
6,I247Q,1.22 ± 0.48
7,M98W,1.2 ± 0.1
8,V249P,1.32 ± 0.15
9,M278D,1.3 ± 0.18
10,M278P,1.23 ± 0.13

# Same assay, conditions: with Escherichia coli (laboratory strain); antibiotic: gentamicin; 2× MIC (MIC 0.45 µg/mL)
row,Variant,fold change of barcode share
1,M98P,0.0277 ± 0.018
2,F305W,0.0107 ± 0.0095
3,V193Q,0.0194 ± 0.015
4,F305A,0.0125 ± 0.0058
5,I247Q,0.0393 ± 0.0086
6,M98W,0.0359 ± 0.017
7,V249P,< 0.00749
8,M278D,0.0189 ± 0.0086
9,M278P,0.0265 ± 0.00066

# Variants of: B2
# Assay: as above
# Settings: with Escherichia coli (laboratory strain); antibiotic: carbenicillin; 2× MIC (3.1 µg/mL)
# Method: as §1
row,Variant,fold change of barcode share
1,L13A,0.262 ± 0.038
2,L13P,0.1822 ± 0.00036
3,L13W,0.336 ± 0.042
4,V322A,0.208 ± 0.016
5,V322Q,0.259 ± 0.017
6,V322W,0.402 ± 0.0075
7,I352A,0.241 ± 0.07
8,I352D,0.204 ± 0.038
9,I352P,0.294 ± 0.13
10,I352Q,0.35 ± 0.1
11,M598A,0.643 ± 0.095
12,M598D,0.92 ± 0.77
13,M598Q,0.929 ± 0.08
14,M598W,0.691 ± 0.007
15,M918A,0.3335 ± 0.0021
16,M918D,0.302 ± 0.0037
17,M918P,1.85 ± 0.24
18,M918Q,0.2623 ± 0.0024
19,M918W,0.347 ± 0.04

# Same assay, conditions: with Escherichia coli (laboratory strain); antibiotic: gentamicin; 2× MIC (MIC 0.45 µg/mL)
row,Variant,fold change of barcode share
1,L13A,0.0117 ± 0.0068
2,L13P,0.0184 ± 0.013
3,V322A,0.00522 ± 0.0029
4,V322Q,0.00836 ± 0.0014
5,V322W,0.00572 ± 0.0028
6,I352A,0.0113 ± 0.01
7,I352D,0.0453 ± 0.051
8,I352P,0.00934 ± 0.0043
9,I352Q,0.0157 ± 0.004
10,M598A,0.0238 ± 0.023
11,M598D,0.0154 ± 0.014
12,M598Q,0.0188 ± 0.014
13,M598W,0.0359 ± 0.039
14,M918A,0.0154 ± 0.0037
15,M918D,0.0184 ± 0.00087
16,M918Q,0.0364 ± 0.034
17,M918W,0.0121 ± 0.0028
18,V381A,0.0155 ± 0.011
19,V381D,< 0.0128
20,V381Q,0.0205 ± 0.016

# Variants of: B3
# Assay: as above
# Settings: with Escherichia coli (laboratory strain); antibiotic: carbenicillin; 2× MIC (3.1 µg/mL)
# Method: as §1
row,Variant,fold change of barcode share
1,VAVLV,0.574 ± 0.2
2,VDVLV,0.318 ± 0.13
3,VPVLV,0.666 ± 0.17
4,VQVLV,0.479 ± 0.033
5,VVPLV,0.349 ± 0.1
6,VVQLV,0.693 ± 0.075
7,VVVAV,0.25 ± 0.059

# Same assay, conditions: with Escherichia coli (laboratory strain); antibiotic: gentamicin; 2× MIC (MIC 0.45 µg/mL)
row,Variant,fold change of barcode share
1,VAVLV,0.00501 ± 0.0026
2,VDVLV,0.00327 ± 0.0011
3,VPVLV,0.00352 ± 0.0013
4,VQVLV,0.00877 ± 0.0083
5,VVPLV,0.00313 ± 0.0019
6,VVQLV,0.00311 ± 0.00074
7,VVVAV,0.0132 ± 0.016
